This sample is rich in variants without activity.
B1: TPR 5TU (parent)
chain: GGAUCUUCUCGAUCUAACAAAAAAGACAAAUCUGCCACAAAGCUUGAGAGCAUCUUCGGAUGCAGAGGCGGCAGCCUUCGGUGGCGCGAUAGCGCCAACGUUCUCAACUAUGACACGCAAAACGCGUGCUCCGUUGAAUGGAGUUUAUCAUG

Variants of: B1
Test: polymerase ribozyme fitness, log enrichment relative to wild type (log ratio); higher = more active; in vitro selection for triplet polymerase activity
Outline: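 The heterodimeric triplet polymerase ribozyme's subunits were each mutagenized into PCR-built libraries and transcribed. Every library was selected once, in triplicate, by annealing with a biotinylated primer, the partner subunit and triplets, incubating frozen at −7 °C, gel-excising extended constructs, capturing on streptavidin beads and running RT-PCR. Input and output libraries were Illumina-sequenced, with genotypes kept only at ≥10 input reads and ≥1 read per output. Fitness, from inverse-variance-weighted replicate averages, is the base-2 logarithm of genotype enrichment over wild-type enrichment.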

Point of comparison: GGAUCUUCUCGAUCUAACAAAAAAGACAAAUCUGCCACAAAGCUUGAGAGCAUCUUCGGAUGCAGAGGCGGCAGCCUUCGGUGGCGCGAUAGCGCCAACGUUCUUCACUAUGACACGCAAAACGCGUGCUCCGUUGAAUGGAGUUUAUCAUG [C105U A106C], “polymerase ribozyme fitness (log ratio)” value 0.388. Against it:
- GGAUCUUCUCGAUCUAACAAAAAAGACAAAUCUGCCACAAAGCUUGAGAGCAUCUUCGGAUGCAGAGGCGGCAGCCUUCGGUGGCGCGAUAGCGCCAACGUUCUCCACUAUGACACGCAAAACGCGUGCUCCGUUGAAUGCAGUUUAUCUUG [A106C G141C A150U] — lower, ≤ -4.2
- GGAUCUUCUCGAUCUAACAAAAAAGACAAAUCUGCCACAAAGCUUGAGAGCAUCUUCGGAUGCAGAGGCGGCAGCCUUCGGUGGCGCGAUAGCGCCAACGUUCGCAACUAUGACACGCACAACGCGUGCUCCGUUGAAUGGAGUUUAUCAUG [U104G A120C] — within 0.2 log units, 0.532
- GGAUCUUCUCGAUCUAACAAAAAAGACAAAUCUGCCACAAAGCUUGAGAGCAUCUUCGGAUGCAGAGGCGGCAGCCUUCGGUGGCGCGAUAGCGCCAACGUUCUGAUCUAUGACACGCAAAACGCGUGCUCCGUUGAAUGGAGUUUACCAUG [C105G A107U U148C] — lower, ≤ -4.2
- GGAUCUUCUCGAUCUAACAAAAAAGACAAAUCUGCCACAAAGCUUGAGAGCAUCUUCGGAUGCAGAGGCGGCAGCCUUCGGUGGCGCGAUAGCGCCAACGUUCUGAACUAUGACACGCAUAACGCGUGCUCCGUUGAAUGGAGUUUAUCAUG [C105G A120U] — lower, -0.931
- GGAUCUUCUCGAUCUAACAAAAAAGACAAAUCUGCCACAAAGCUUGAGAGCAUCUUCGGAUGCAGAGGCGGCAGCCUUCGGUGGCGCGAUAGCGCCAACGUUCCCGACUAUGACACGCAAAACGCGUGCUCCGUUGAAUGGAGUUUAUCAUG [U104C A106G] — lower, -0.701
- GGAUCUUCUCGAUCUAACAAAAAAGACAAAUCUGCCACAAAGCUUGAGAGCAUCUUCGGAUGCAGAGGCGGCAGCCUUCGGUGGCGCGAUAGCGCCAACGUUCACAACUAUGACACGCAAAACGCGUGCUCCGUUGCAUGGAGUUUAUCAUG [U104A A137C] — lower, -3.89
- GGAUCUUCUCGAUCUAACAAAAAAGACAAAUCUGCCACAAAGCUUGAGAGCAUCUUCGGAUGCAGAGGCGGCAGCCUUCGGUGGCGCGAUAGCGCCAACGUUCUUAACUAUGACACGCAAAACGCGUGCUCCGUAGAAUGGAGUUUAUCAUG [C105U U135A] — lower, 0.0587
- GGAUCUUCUCGAUCUAACAAAAAAGACAAAUCUGCCACAAAGCUUGAGAGCAUCUUCGGAUGCAGAGGCGGCAGCCUUCGGUGGCGCGAUAGCGCCAACGUUUUCAACUAUGACACGCAAAACGCGUGCUCCGUUGAAAGGAGUUUAUCAUG [C103U U139A] — lower, -3.96
- GGAUCUUCUCGAUCUAACAAAAAAGACAAAUCUGCCACAAAGCUUGAGAGCAUCUUCGGAUGCAGAGGCGGCAGCCUUCGGUGGCGCGAUAGCGCCAACGUUGUCAACUAUGACACGCAAAACGCGUGCUCCGUAGAAUGGAGUUUAUCAUG [C103G U135A] — lower, -2.27
- GGAUCUUCUCGAUCUAACAAAAAAGACAAAUCUGCCACAAAGCUUGAGAGCAUCUUCGGAUGCAGAGGCGGCAGCCUUCGGUGGCGCGAUAGCGCCAACGUUCUUAACUAUGACACGCAAAACGCGUGCUCCGUUGAAUAGAGUUUAUCAUG [C105U G140A] — lower, -2.92
- GGAUCUUCUCGAUCUAACAAAAAAGACAAAUCUGCCACAAAGCUUGAGAGCAUCUUCGGAUGCAGAGGCGGCAGCCUUCGGUGGCGCGAUAGCGCCAACGUUCUCCACUAUGACAGGCAAAACGCGUGCUCCGUUGAAUGGAGUUUAUCAUG [A106C C116G] — lower, -0.324
- GGAUCUUCUCGAUCUAACAAAAAAGACAAAUCUGCCACAAAGCUUGAGAGCAUCUUCGGAUGCAGAGGCGGCAGCCUUCGGUGGCGCGAUAGCGCCAACGUUCUUAGCUAUGACACGCGAAACGCGUGCUCCGUUGAAUGGAGAUUAUCAUG [C105U A107G A119G U144A] — lower, ≤ -4.2
- GGAUCUUCUCGAUCUAACAAAAAAGACAAAUCUGCCACAAAGCUUGAGAGCAUCUUCGGAUGCAGAGGCGGCAGCCUUCGGUGGCGCGAUAGCGCCAACGUUUUCAACUAUGACGCGCAAAACGCGUGCUCCGUUGAAUGGAGUUUAUCAUG [C103U A115G] — lower, -1.14
- GGAUCUUCUCGAUCUAACAAAAAAGACAAAUCUGCCACAAAGCUUGAGAGCAUCUUCGGAUGCAGAGGCGGCAGCCUUCGGUGGCGCGAUAGCGCCAACGUUCUUAACUAUGACACGCAAAACGCGUGCUACGUUGAAUGGAGUUUAUGAUG [C105U C131A C149G] — lower, ≤ -4.2
- GGAUCUUCUCGAUCUAACAAAAAAGACAAAUCUGCCACAAAGCUUGAGAGCAUCUUCGGAUGCAGAGGCGGCAGCCUUCGGUGGCGCGAUAGCGCCAACGUUCUAAACUAUGACACGCAAAACGCGUGCUCCGUCGAAUGGAGUUUAUCAUG [C105A U135C] — lower, -2.39
- GGAUCUUCUCGAUCUAACAAAAAAGACAAAUCUGCCACAAAGCUUGAGAGCAUCUUCGGAUGCAGAGGCGGCAGCCUUCGGUGGCGCGAUAGCGCCAACGUUCGCAACUAUGACACGCAAAACGCGUGCUCCGGUGAAUGGAAUUUAUCAUG [U104G U134G G143A] — lower, -3.69
- GGAUCUUCUCGAUCUAACAAAAAAGACAAAUCUGCCACAAAGCUUGAGAGCAUCUUCGGAUGCAGAGGCGGCAGCCUUCGGUGGCGCGAUAGCGCCAACGUUUUCAACUAUGACACGCAAAACGCGUGCUCCGUUGAAUGGAGUUUAUCAUG [C103U] — lower, -0.357
- GGAUCUUCUCGAUCUAACAAAAAAGACAAAUCUGCCACAAAGCUUGAGAGCAUCUUCGGAUGCAGAGGCGGCAGCCUUCGGUGGCGCGAUAGCGCCAACGUUCUCCACUAUGCCACGCAAAACGCGUGCUCCGUUGAAUCGAGUUUAUCACG [A106C A113C G140C U151C] — lower, ≤ -4.2

Source: the RNAGym collection of RNA variant scans (doi:10.1073/pnas.2313332121)
